The values below come from PMC8875924.

Sequences of proteins named here, by UniProt entry; tags and fusion partners are left off.
UniProt Q9HAU5: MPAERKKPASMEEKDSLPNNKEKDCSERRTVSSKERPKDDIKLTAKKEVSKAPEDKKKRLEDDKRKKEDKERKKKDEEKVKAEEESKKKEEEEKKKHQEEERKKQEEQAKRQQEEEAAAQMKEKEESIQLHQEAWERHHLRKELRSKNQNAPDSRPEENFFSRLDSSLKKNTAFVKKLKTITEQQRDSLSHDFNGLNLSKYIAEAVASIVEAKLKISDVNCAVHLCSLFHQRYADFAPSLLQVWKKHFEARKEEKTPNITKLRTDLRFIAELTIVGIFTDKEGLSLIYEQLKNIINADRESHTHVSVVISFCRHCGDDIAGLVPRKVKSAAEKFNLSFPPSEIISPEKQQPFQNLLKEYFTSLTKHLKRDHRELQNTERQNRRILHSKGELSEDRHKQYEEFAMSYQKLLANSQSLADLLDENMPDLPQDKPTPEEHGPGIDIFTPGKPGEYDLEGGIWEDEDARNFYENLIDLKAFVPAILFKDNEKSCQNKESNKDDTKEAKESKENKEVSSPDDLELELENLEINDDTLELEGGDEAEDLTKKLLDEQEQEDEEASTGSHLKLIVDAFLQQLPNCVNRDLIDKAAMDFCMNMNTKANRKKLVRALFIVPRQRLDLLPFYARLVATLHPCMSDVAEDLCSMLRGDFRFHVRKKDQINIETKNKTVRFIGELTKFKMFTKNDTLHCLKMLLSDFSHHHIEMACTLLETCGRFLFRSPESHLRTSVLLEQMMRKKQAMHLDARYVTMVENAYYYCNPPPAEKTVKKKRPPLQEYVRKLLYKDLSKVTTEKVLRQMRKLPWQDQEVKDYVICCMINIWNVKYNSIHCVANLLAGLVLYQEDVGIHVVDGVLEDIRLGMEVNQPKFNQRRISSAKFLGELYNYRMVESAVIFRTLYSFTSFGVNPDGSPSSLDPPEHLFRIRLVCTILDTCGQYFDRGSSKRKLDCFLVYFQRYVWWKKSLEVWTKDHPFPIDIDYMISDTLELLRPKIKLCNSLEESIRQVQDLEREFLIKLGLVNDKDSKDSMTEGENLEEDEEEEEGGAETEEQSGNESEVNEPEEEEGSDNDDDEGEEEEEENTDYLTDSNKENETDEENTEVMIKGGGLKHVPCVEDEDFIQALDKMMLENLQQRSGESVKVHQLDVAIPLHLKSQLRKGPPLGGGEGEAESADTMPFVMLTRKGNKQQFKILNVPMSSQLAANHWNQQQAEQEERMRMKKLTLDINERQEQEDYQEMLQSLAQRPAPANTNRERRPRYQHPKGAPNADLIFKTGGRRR

No constants are given. Whether binding was seen depends on the method and setting. In cells and extracts the contact can be indirect. Some binding calls cover weakened binding; strength is not graded here. Tags and fused reporters may be left off the sequences shown.

Common to all, as to test: pull-down
Experiment [1] deals with T1, GST-UPF1 (wild type) (human) (UniProt Q92900).
T1 sequence: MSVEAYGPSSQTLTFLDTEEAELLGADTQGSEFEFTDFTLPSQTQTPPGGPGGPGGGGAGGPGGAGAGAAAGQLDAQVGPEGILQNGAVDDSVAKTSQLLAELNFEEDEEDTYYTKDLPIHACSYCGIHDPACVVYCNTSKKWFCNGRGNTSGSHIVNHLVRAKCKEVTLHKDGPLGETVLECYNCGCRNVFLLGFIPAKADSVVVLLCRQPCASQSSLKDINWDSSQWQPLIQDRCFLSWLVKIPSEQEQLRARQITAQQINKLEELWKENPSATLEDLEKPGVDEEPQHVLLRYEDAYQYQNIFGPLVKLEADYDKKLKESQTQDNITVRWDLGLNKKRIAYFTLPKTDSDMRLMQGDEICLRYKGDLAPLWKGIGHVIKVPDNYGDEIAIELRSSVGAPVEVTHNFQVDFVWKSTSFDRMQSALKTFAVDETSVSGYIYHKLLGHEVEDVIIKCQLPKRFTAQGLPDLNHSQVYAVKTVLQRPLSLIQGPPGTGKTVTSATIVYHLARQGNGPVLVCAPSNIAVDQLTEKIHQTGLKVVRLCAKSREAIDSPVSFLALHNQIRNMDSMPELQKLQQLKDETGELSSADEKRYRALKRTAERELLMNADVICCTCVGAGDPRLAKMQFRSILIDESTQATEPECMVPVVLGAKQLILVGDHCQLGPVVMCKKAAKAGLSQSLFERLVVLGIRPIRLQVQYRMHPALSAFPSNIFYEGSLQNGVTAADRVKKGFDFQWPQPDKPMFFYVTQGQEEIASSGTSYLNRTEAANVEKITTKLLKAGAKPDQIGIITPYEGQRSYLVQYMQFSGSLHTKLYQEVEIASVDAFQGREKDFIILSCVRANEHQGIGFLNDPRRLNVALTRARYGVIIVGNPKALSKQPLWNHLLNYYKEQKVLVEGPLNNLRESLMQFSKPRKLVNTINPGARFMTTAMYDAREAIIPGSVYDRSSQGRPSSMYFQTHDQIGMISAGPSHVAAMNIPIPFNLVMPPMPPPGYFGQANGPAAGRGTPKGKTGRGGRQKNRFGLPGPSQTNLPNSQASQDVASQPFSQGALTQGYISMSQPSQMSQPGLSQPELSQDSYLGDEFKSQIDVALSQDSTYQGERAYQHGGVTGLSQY

A further experiment deals with T2, His-UPF3B (UniProt Q9BZI7).
T2 sequence: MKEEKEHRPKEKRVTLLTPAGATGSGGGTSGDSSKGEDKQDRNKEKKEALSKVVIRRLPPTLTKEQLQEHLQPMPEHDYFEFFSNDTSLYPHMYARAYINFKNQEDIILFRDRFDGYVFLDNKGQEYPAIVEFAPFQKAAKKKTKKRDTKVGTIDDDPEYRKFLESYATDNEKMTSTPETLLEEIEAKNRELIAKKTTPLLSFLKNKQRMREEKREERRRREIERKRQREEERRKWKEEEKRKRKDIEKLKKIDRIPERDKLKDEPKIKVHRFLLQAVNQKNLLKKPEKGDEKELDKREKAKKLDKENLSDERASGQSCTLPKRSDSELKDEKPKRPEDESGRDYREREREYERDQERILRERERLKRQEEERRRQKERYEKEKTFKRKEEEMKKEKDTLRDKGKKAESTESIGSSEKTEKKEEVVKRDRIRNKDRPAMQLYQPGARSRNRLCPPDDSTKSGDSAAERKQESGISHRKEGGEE

Another experiment deals with T3, GST-Rex (HTLV-1) (UniProt P0C205).
T3 sequence: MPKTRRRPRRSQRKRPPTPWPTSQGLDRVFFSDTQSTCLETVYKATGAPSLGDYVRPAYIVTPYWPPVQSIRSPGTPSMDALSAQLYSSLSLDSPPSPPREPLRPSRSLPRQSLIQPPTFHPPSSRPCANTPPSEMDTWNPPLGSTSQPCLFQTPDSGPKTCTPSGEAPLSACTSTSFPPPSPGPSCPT

A further experiment deals with GST-UPF2 (UniProt Q9HAU5).

For the molecule “p21Rex (Rex lacking N-terminal aa1-78) (from UniProt P0C205-1 79-189) (domain or fragment)”, the binding result in experiment [1] is recorded as “no binding”.

B1: FLAG-Rex (wild-type p27Rex of HTLV-1, from Rex-pME-FLAG) (protein, UniProt P0C205 1-189)
chain: MPKTRRRPRRSQRKRPPTPWPTSQGLDRVFFSDTQSTCLETVYKATGAPSLGDYVRPAYIVTPYWPPVQSIRSPGTPSMDALSAQLYSSLSLDSPPSPPREPLRPSRSLPRQSLIQPPTFHPPSSRPCANTPPSEMDTWNPPLGSTSQPCLFQTPDSGPKTCTPSGEAPLSACTSTSFPPPSPGPSCPT
For B1, the binding result in experiment [1] was “binds”.

B2: Rex (from the SRα-Rex plasmid) (protein, UniProt P0C205 1-189)
chain: MPKTRRRPRRSQRKRPPTPWPTSQGLDRVFFSDTQSTCLETVYKATGAPSLGDYVRPAYIVTPYWPPVQSIRSPGTPSMDALSAQLYSSLSLDSPPSPPREPLRPSRSLPRQSLIQPPTFHPPSSRPCANTPPSEMDTWNPPLGSTSQPCLFQTPDSGPKTCTPSGEAPLSACTSTSFPPPSPGPSCPT
Take B2: the binding entry with His-UPF3B is “binds”.

B3: SMG5 (endogenous) (protein, UniProt Q9UPR3 1-1016)
chain: MSQGPPTGESSEPEAKVLHTKRLYRAVVEAVHRLDLILCNKTAYQEVFKPENISLRNKLRELCVKLMFLHPVDYGRKAEELLWRKVYYEVIQLIKTNKKHIHSRSTLECAYRTHLVAGIGFYQHLLLYIQSHYQLELQCCIDWTHVTDPLIGCKKPVSASGKEMDWAQMACHRCLVYLGDLSRYQNELAGVDTELLAERFYYQALSVAPQIGMPFNQLGTLAGSKYYNVEAMYCYLRCIQSEVSFEGAYGNLKRLYDKAAKMYHQLKKCETRKLSPGKKRCKDIKRLLVNFMYLQSLLQPKSSSVDSELTSLCQSVLEDFNLCLFYLPSSPNLSLASEDEEEYESGYAFLPDLLIFQMVIICLMCVHSLERAGSKQYSAAIAFTLALFSHLVNHVNIRLQAELEEGENPVPAFQSDGTDEPESKEPVEKEEEPDPEPPPVTPQVGEGRKSRKFSRLSCLRRRRHPPKVGDDSDLSEGFESDSSHDSARASEGSDSGSDKSLEGGGTAFDAETDSEMNSQESRSDLEDMEEEEGTRSPTLEPPRGRSEAPDSLNGPLGPSEASIASNLQAMSTQMFQTKRCFRLAPTFSNLLLQPTTNPHTSASHRPCVNGDVDKPSEPASEEGSESEGSESSGRSCRNERSIQEKLQVLMAEGLLPAVKVFLDWLRTNPDLIIVCAQSSQSLWNRLSVLLNLLPAAGELQESGLALCPEVQDLLEGCELPDLPSSLLLPEDMALRNLPPLRAAHRRFNFDTDRPLLSTLEESVVRICCIRSFGHFIARLQGSILQFNPEVGIFVSIAQSEQESLLQQAQAQFRMAQEEARRNRLMRDMAQLRLQLEVSQLEGSLQQPKAQSAMSPYLVPDTQALCHHLPVIRQLATSGRFIVIIPRTVIDGLDLLKKEHPGARDGIRYLEAEFKKGNRYIRCQKEVGKSFERHKLKRQDADAWTLYKILDSCKQLTLAQGAGEEDPSGMVTIITGLPLDNPSVLSGPMQAALQAAAHASVDIKNVLDFYKQWKEIG
Consider B3, for which, in the experiment with GST-Rex (HTLV-1), the binding entry was “binds”.

B4: Upf3B (endogenous) (protein, UniProt Q9BZI7 1-483)
chain: MKEEKEHRPKEKRVTLLTPAGATGSGGGTSGDSSKGEDKQDRNKEKKEALSKVVIRRLPPTLTKEQLQEHLQPMPEHDYFEFFSNDTSLYPHMYARAYINFKNQEDIILFRDRFDGYVFLDNKGQEYPAIVEFAPFQKAAKKKTKKRDTKVGTIDDDPEYRKFLESYATDNEKMTSTPETLLEEIEAKNRELIAKKTTPLLSFLKNKQRMREEKREERRRREIERKRQREEERRKWKEEEKRKRKDIEKLKKIDRIPERDKLKDEPKIKVHRFLLQAVNQKNLLKKPEKGDEKELDKREKAKKLDKENLSDERASGQSCTLPKRSDSELKDEKPKRPEDESGRDYREREREYERDQERILRERERLKRQEEERRRQKERYEKEKTFKRKEEEMKKEKDTLRDKGKKAESTESIGSSEKTEKKEEVVKRDRIRNKDRPAMQLYQPGARSRNRLCPPDDSTKSGDSAAERKQESGISHRKEGGEE
On to B4, for which the binding entry with GST-Rex (HTLV-1) was “binds”.

B5: HA-UPF3A (protein, UniProt Q9H1J1 1-476)
chain: MRSEKEGAGGLRAAVAARGPSGREKLSALEVQFHRDSQQQEAETPPTSSSGCGGGAGKPREEKRTALSKVVIRRLPPGLTKEQLEEQLRPLPAHDYFEFFAADLSLYPHLYSRAYINFRNPDDILLFRDRFDGYIFLDSKGLEYPAVVEFAPFQKIAKKKLRKKDAKTGSIEDDPEYKKFLETYCVEEEKTSANPETLLGEMEAKTRELIARRTTPLLEYIKNRKLEKQRIREEKREERRRRELEKKRLREEEKRRRREEERCKKKETDKQKKIAEKEVRIKLLKKPEKGEEPTTEKPKERGEEIDTGGGKQESCAPGAVVKARPMEGSLEEPQETSHSGSDKEHRDVERSQEQESEAQRYHVDDGRRHRAHHEPERLSRRSEDEQRWGKGPGQDRGKKGSQDSGAPGEAMERLGRAQRCDDSPAPRKERLANKDRPALQLYDPGARFRARECGGNRRICKAEGSGTGPEKREEAE
As for B5, the binding entry with GST-UPF2 is given as “binds”.

B6: Upf3A (endogenous) (protein, UniProt Q9H1J1 1-476)
chain: MRSEKEGAGGLRAAVAARGPSGREKLSALEVQFHRDSQQQEAETPPTSSSGCGGGAGKPREEKRTALSKVVIRRLPPGLTKEQLEEQLRPLPAHDYFEFFAADLSLYPHLYSRAYINFRNPDDILLFRDRFDGYIFLDSKGLEYPAVVEFAPFQKIAKKKLRKKDAKTGSIEDDPEYKKFLETYCVEEEKTSANPETLLGEMEAKTRELIARRTTPLLEYIKNRKLEKQRIREEKREERRRRELEKKRLREEEKRRRREEERCKKKETDKQKKIAEKEVRIKLLKKPEKGEEPTTEKPKERGEEIDTGGGKQESCAPGAVVKARPMEGSLEEPQETSHSGSDKEHRDVERSQEQESEAQRYHVDDGRRHRAHHEPERLSRRSEDEQRWGKGPGQDRGKKGSQDSGAPGEAMERLGRAQRCDDSPAPRKERLANKDRPALQLYDPGARFRARECGGNRRICKAEGSGTGPEKREEAE
Consider B6, for which, in the experiment with GST-Rex (HTLV-1), the binding result is reported as “no binding”.

B7: Upf1 (endogenous) (protein, UniProt Q92900 1-1129)
chain: MSVEAYGPSSQTLTFLDTEEAELLGADTQGSEFEFTDFTLPSQTQTPPGGPGGPGGGGAGGPGGAGAGAAAGQLDAQVGPEGILQNGAVDDSVAKTSQLLAELNFEEDEEDTYYTKDLPIHACSYCGIHDPACVVYCNTSKKWFCNGRGNTSGSHIVNHLVRAKCKEVTLHKDGPLGETVLECYNCGCRNVFLLGFIPAKADSVVVLLCRQPCASQSSLKDINWDSSQWQPLIQDRCFLSWLVKIPSEQEQLRARQITAQQINKLEELWKENPSATLEDLEKPGVDEEPQHVLLRYEDAYQYQNIFGPLVKLEADYDKKLKESQTQDNITVRWDLGLNKKRIAYFTLPKTDSGNEDLVIIWLRDMRLMQGDEICLRYKGDLAPLWKGIGHVIKVPDNYGDEIAIELRSSVGAPVEVTHNFQVDFVWKSTSFDRMQSALKTFAVDETSVSGYIYHKLLGHEVEDVIIKCQLPKRFTAQGLPDLNHSQVYAVKTVLQRPLSLIQGPPGTGKTVTSATIVYHLARQGNGPVLVCAPSNIAVDQLTEKIHQTGLKVVRLCAKSREAIDSPVSFLALHNQIRNMDSMPELQKLQQLKDETGELSSADEKRYRALKRTAERELLMNADVICCTCVGAGDPRLAKMQFRSILIDESTQATEPECMVPVVLGAKQLILVGDHCQLGPVVMCKKAAKAGLSQSLFERLVVLGIRPIRLQVQYRMHPALSAFPSNIFYEGSLQNGVTAADRVKKGFDFQWPQPDKPMFFYVTQGQEEIASSGTSYLNRTEAANVEKITTKLLKAGAKPDQIGIITPYEGQRSYLVQYMQFSGSLHTKLYQEVEIASVDAFQGREKDFIILSCVRANEHQGIGFLNDPRRLNVALTRARYGVIIVGNPKALSKQPLWNHLLNYYKEQKVLVEGPLNNLRESLMQFSKPRKLVNTINPGARFMTTAMYDAREAIIPGSVYDRSSQGRPSSMYFQTHDQIGMISAGPSHVAAMNIPIPFNLVMPPMPPPGYFGQANGPAAGRGTPKGKTGRGGRQKNRFGLPGPSQTNLPNSQASQDVASQPFSQGALTQGYISMSQPSQMSQPGLSQPELSQDSYLGDEFKSQIDVALSQDSTYQGERAYQHGGVTGLSQY
With B7, the binding result with GST-Rex (HTLV-1) was “binds”.
